According to the RNAGym collection of RNA variant scans (doi:10.1073/pnas.2313332121):
Variants at the background level are over-represented here.

B1: TPR 5TU (parent)
chain: GGAUCUUCUCGAUCUAACAAAAAAGACAAAUCUGCCACAAAGCUUGAGAGCAUCUUCGGAUGCAGAGGCGGCAGCCUUCGGUGGCGCGAUAGCGCCAACGUUCUCAACUAUGACACGCAAAACGCGUGCUCCGUUGAAUGGAGUUUAUCAUG

Variants of: B1
Assay: polymerase ribozyme fitness, log enrichment relative to wild type (log ratio); higher = more active; in vitro selection for triplet polymerase activity
Procedure, shortened: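 Mutant libraries of both subunits of a heterodimeric triplet polymerase ribozyme were PCR-built, transcribed, and selected once in triplicate, with frozen incubation at −7 °C and capture of gel-excised extended constructs on streptavidin beads before RT-PCR. Illumina sequencing of input and output libraries was filtered to genotypes with ≥10 input reads and ≥1 read per output. Fitness is the logarithm of genotype enrichment over wild-type enrichment, using inverse-variance-weighted replicate averages. The logarithm is base 2.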

Variant	polymerase ribozyme fitness (log ratio)
GGAUCUUCUCGAUCUAACAAAAAAGACAAAUCUGCCACAAAGCUUGUGAGCUUCUUCGGAUGCAGAGGCGGCAGGAUUCGGUGGCGCGAUAGCGACAGCGUUCUCAACUAUGACACGCAAAACGCGUGCUCCGUUGAAUGGCGUUUAUCAUG	≤ -4.2
GGAUCUUCUCGAUCUAACAAAAAAGACAAAUCUGCCACAAAGCUUGUGAGCAUCUUCGGGUGCGGAGGCGGCAGUCUUCGGUGGCGCGAUAUCGCCAACGUUCUCAACUAUGAUACGGAAAACGCGUGCUCCGUUGAAUGGAGUUUAUCAUG	≤ -4.2
GGAUCUUCUCGAUCUAACAAAAAAGACAAAUCUGCCACAAAGCUUGUGAGCAUCUUCGGAUGCAGCGGCGGCAGCGUUCGGUAGCGCGAUAGCGCCAACGUUCUCCACUAUGACACGCAAAACGCGUGCUCCGUUGAAUGGAGUUUAUCAUG	≤ -4.2
GGAUCUUCUCGAUCUAACAAAAAAGACAAAUCUGCCACAAAGCUUGUGAGCAUCUUCGGAUGCAGAGGCGGCAGCCUUCGGUGGCGCGGUAGCGCCAACGUUCUCAACUAUGACACGCAAAACGCGUGCUACGUUGAAUGGAGUUUAUCAUG	≤ -4.2
GGAUCUUCUCGAUCUAACAAAAAAGACAAAUCUGCCACAAAGCUUGUGAGCAUCUUCGGAUGCAGAGGCGGCAGCCUUCGGUGGCGCGAUAGCGCCAACGUUCUCACCUGUGACACGCUAAACGCUUGCUCCGUCGAAUGGAGUUUAUCAUG	≤ -4.2
GGAUCUUCUCGAUCUAACAAAAAAGACAAAUCUGCCACAAAGCUUGUGAGCAUCUUUGGAUGCAGAGGCGGCAGCCUUCGGUGGCGCGAUAGCGCCAACGUUCUCAACUAUGACACGCAAAACGCGUGCUCCGUUGAAUGGAGUUUAUCAUG	0.131
GGAUCUUCUCGAUCUAACAAAAAAGACAAAUCUGCCACAAAGCUUGUGAGCAUCUUCGGAUGGAGAGGCGGCAACCUUCGGUGGCGCGAUAACGCCAACGUUCUCAACUAUGACACGCAAAACGCGUGCUCCGUUGAAUGGAGUUUAUCAUG	≤ -4.2
GGAUCUUCUCGAUCUAACAAAAAAGACAAAUCUGCCACAAAGCUUGUGAGCAUCUUCGGAUGCAGAGGCGGCAGCGUUCGGUGGCGCGAUAGCCCCAACGGUCUCAACUAUGACACGCAAAACGCGUGCUCCGUUGAAUGGAGUUUAUCAUG	≤ -4.2
GGAUCUUCUCGAUCUAACAAAAAAGACAAAUCUGCCACAAAGCUUGUGAGCAUCUUCGGAUGCAGAGGCGGCAGCCUUCGGUGGAGCGAUAGCGCCAACGUUCUCAACUAUGACACGCAAAACGCGUGCUCCGUUGAAUGGAGUUUAUCAUG	-2.21
GGAUCUUCUCGAUCUAACAAAAAAGACAAAUCUGCCACAAAGCUUGUGAGCAUCUUCGGAUGCAGAGGCGGCAGCCUUCGGUGGGGCGAUAGCGCCAACGUUCUCAACUAUGACACGCAAAACGCGUGCUCCGUUGAAUGGAGUUUAUCAUG	-2.65
GGAUCUUCUCGAUCUAACAAAAAAGACAAAUCUGCCACAAAGCUUGUGAGCAUCUUCGGAUGCAGAGGCGGCAGCCUUCGGUGGUGGGAUAGCGCCAACGUUCUCAACUAUGACACGCAAAACGCGUGCUCCGUUGAAUGGAGUUUAUCAUG	≤ -4.2
GGAUCUUCUCGAUCUAACAAAAAAGACAAAUCUGCCACAAAGCUUGUGAGCAUCUUCGGAUGCAGAGGCGGCAGCCUUCGGUGGCGUGAUUGCGCCAACGUUCUCAACUAUGACACGCAAAACGCGUGCUCCGUUGAAUGGAGCUUAUCAUG	≤ -4.2
GGAUCUUCUCGAUCUAACAAAAAAGACAAAUCUGCCACAAAGCUUGUGAGCAUCUUCGGAUGCAGAGGCGGCAGCCUUCGGUGGCGCGAUAGUGCCAACGUUCUCAACUAUGACUCGCAAGACGCGUGCUCCGUUGAAUUGAGUUUAUCAUG	≤ -4.2
GGAUCUUCUCGAUCUAACAAAAAAGACAAAUCUGCCACAAAGCUUGUGAGCAUCUUCGGAUGCAGAGGCGGCAGCCUUCGGUGGCGCGAUAGUGCCAACGUUCUCAAAUAUGACACGCAAAACGCGUGCUCCGUUGAAUGGAGUUUAUCAUG	≤ -4.2
GGAUCUUCUCGAUCUAACAAAAAAGACAAAUCUGCCACAAAGCUUGUCAGCAUCUUCGGAUGCAGAGGCGGCGGCCUUCGGUGGCGCGCUAGCGCCAACGUUCUCAACUAUGACACGCAAAACGCGUGCUCCGUUAAAUGGAGUUCAUCAGG	≤ -4.2
GGAUCUUCUCGAUCUAACAAAAAAGACAAAUCUGCCACAAAGCUUGUGAACAUCUUCGGAUGCAGAGGCGGCAGUCUUCGGUGGCGCGAUAGCGCCAACGUUCUCAACUGUGGCACGCAAAACGCGUGCUCCGUUGAAUGGAGUUUAUCAUG	≤ -4.2
GGAUCUUCUCGAUCUAACAAAAAAGACAAAUCUGCCACAAAGCUUGUGAACAUCUUCGGAUGCAGAGGCGGCAGCCUUCGGUGGCGCGAUAACGCCAACGUUCUCAACUAUGACACGCAAAACGCGUGCUCCGUUGAAUGGAGUCUAUCAUG	≤ -4.2
GGAUCUUCUCGAUCUAACAAAAAAGACAAAUCUGCCACAAAGCUUGUGACCAUCUUCGGAUGCAGAGGCGGCAGCCUUCGGUGGCGCGAUAGCGCCAACGUUCUCAACUAUGACACGCAAAACGCGUGCUCCGUUGAAUGGGGUUGAUCAUG	≤ -4.2
GGAUCUUCUCGAUCUAACAAAAAAGACAAAUCUGCCACAAAGCUUGUGAGCAUCUUCCGAUGCAGAGGCGGCAGCCUUCGGUGGCGCCAUAGCGCCAACGUUCUCAACUAUGACACGCAAAACGCGUGCUCCGUUGAAUGGAGUUUAUCAUG	≤ -4.2

Variant	polymerase ribozyme fitness (log ratio)
GGAUCUUCUCGAUCUAACAAAAAAGACAAAUCUGCCACAAAGCUUGUGAGCAUCUUCGUAUGCAGAGGCGGCAGCCUUCGGUGGCGCGAUAUCGCGAACGUUCGCAAUUAUGACACGCAAAACGCGUGCUCCGUUGAAUGGAGUUUAUCAUG	≤ -4.2
GGAUCUUCUCGAUCUAACAAAAAAGACAAAUCUGCCACAAAGCUUGUGAGCAUCUUCGGAUACAGAGGCGGCAGCCUUCGGUGGCGCGAUAGCGCCAACGUUCUCAACUAUGACACGCAAAACGCGCGCUCCUUUGAAUGGAGUUUAUCAUG	≤ -4.2
GGAUCUUCUCGAUCUAACAAAAAAGACAAAUCUGCCACAAAGCUUGUGAGCAUCUUCGGAUGCAGAGACGGCAGCCUUGGGUGGUGCGAUAGCGCCAACGUUCUCAACUAUGACACUCAAAACGCGUGCUCCGUUGAAUGGAGUUUAUCAUG	≤ -4.2
GGAUCUUCUCGAUCUAACAAAAAAGACAAAUCUGCCACAAAGCUUGUGAGCAUCUUCGGAUGCAGAGACGGCAGCCUUCGGUUGCGUGAUAGCGCCAACGUUCUCAACUAUGACACGCAAAACGCGUGCCCCGUUGAAUAGAGUUUAUCAUG	≤ -4.2
GGAUCUUCUCGAUCUAACAAAAAAGACAAAUCUGCCACAAAGCUUGUGAGCAUCUUCGGAUGCAGAGGCUGCAGCCUUCGGUGGCGCGAUAGCGCCAACGUUCUCAACUAUGACACGCAAAGCGCGUGCUCCGUUGAAUGGAGUUUAUCAUG	-3.45
GGAUCUUCUCGAUCUAACAAAAAAGACAAAUCUGCCACAAAGCUUGUGAGCAUCUUCGGAUGCAGAGGCGGCAGCCUUCGCUGGGUCGAUAGCGUCAACGUUCUCCACUAUGACACGCAAAACGCGUGCUCCGUUGAAUGGAAUUUAUCAUG	≤ -4.2
GGAUCUUCUCGAUCUAACAAAAAAGACAAAUCUGCCACAAAGCUUGUGAGCAUCUUCGGAUGCAGAGGCGGCAGCCUUCGGUCGCGCGAUAGCGCCAACGUUCUCAGGUAUGACACGCAAAACGCGUGCUCCGUUGAAUGGAGUUUAUCAAG	≤ -4.2
GGAUCUUCUCGAUCUAACAAAAAAGACAAAUCUGCCACAAAGCUUGUGAGCAUCUUCGGAUGCAGAGGCGGCAGCCUUCGGUCGCGCGAUAGCGCCAACGUUCUCAACUAUGACACGCAAAACGCGUGCUCCGUUGAAUGGGGUUUAUCAUG	-2.42
GGAUCUUCUCGAUCUAACAAAAAAGACAAAUCUGCCACAAAGCUUGUGAGCAUCUUCGGAUGCAGAGGCGGCAGCCUUCGGUCGCGCGAUAGCUCCAACGUUCUCAAUUAUGACACGCAAAACGCCUGCUCCGUUGACUGGUGUUUAUUAUG	≤ -4.2
GGAUCUUCUCGAUCUAACAAAAAAGACAAAUCUGCCACAAAGCUUGUGAGCAUCUUCGGAUGCAGAGGCGGCAGCCUUCGGUGUCGCGAUAGCGCCAACGUUCUCAACUAUGACACGCAAAACGCGUGCUCCGUUGAAUGGAGUUUAUCAUG	-1.78
GGAUCUUCUCGAUCUAACAAAAAAGACAAAUCUGCCACAAAGCUUGUGAGCAUCUUCGGAUGCAGAGGCGGCAGCCUUCGGUGUCGCGAAAGCGCCAACGUUCUCAACUAUGACCCGCAAAACGCGUGCUCCGUUGAAUGGAGUUUAACAUG	≤ -4.2
GGAUCUUCUCGAUCUAACAAAAAAGACAAAUCUGCCACAAAGCUUGUGAGCAUCUUCGGAUGCAGAGGCGGCAGCCUUCGGUGGCGCCAUAGCGCCAACGUUCUCAACUUUGACACGCAAAACGAGUGCUCCGUUGAAUGGAGUUUAUCAUG	≤ -4.2
GGAUCUUCUCGAUCUAACAAAAAAGACAAAUCUGCCACAAAGCUUGUGAGCAUCAUCGGAUGCAGAGGCGGCAGCCUUCGGUGGCGGGAUAGCGCCAACGUUCUCAACUAUGACACGCAAAACGCGUGCUCCGUUGAAUGGAGUUGCUCAUG	≤ -4.2
GGAUCUUCUCGAUCUAACAAAAAAGACAAAUCUGCCACAAAGCUUGUGAGCAUCAUCGGAUGCAGAGGCGGCAGCCUUCGGUGGCGUGAUAGCGCCAACGUUCUCAACUAUGACACGCAAAACGCGUGCUCCGUUGAAUGGAGUUUAUCAUG	-2.17
GGAUCUUCUCGAUCUAACAAAAAAGACAAAUCUGCCACAAAGCUUGUGAGCAUCGUCGCAUGAAAAGGCGGCAGCCUUCGGUGGCGCGAUAGCGCCAACGUUCUCAACUAUGACACGCAAAACGCGUGCUCCGUUGAAUGGAGUUUAACAUG	≤ -4.2
GGAUCUUCUCGAUCUAACAAAAAAGACAAAUCUGCCACAAAGCUUGUGAGCAUCGUCGGAUGCAGAGACGGCAGCCUUCGGUGUCGCGAUAGCGCCAACGUUCUCAACUAUGACACGCAAAACGCGUGCUCCGUUGAAUGGAGUUUAUCAAG	≤ -4.2
GGAUCUUCUCGAUCUAACAAAAAAGACAAAUCUGCCACAAAGCUUGUGAGCAUCUUCGGAAGCAGAGGCGGCAGCCUUCGGUGGCGCGAUAGCGCCAACGUUCUCAACUAUGACACGCAAAACGCGUGCUCCGUUGAAUGGAGUUUAUCAUG	-1.41
GGAUCUUCUCGAUCUAACAAAAAAGACAAAUCUGCCACAAAGCUUGUGAGCAUCUUCGGAUGCAGAGGCGGCAGCCUUCGGUGGCGCGAAAGCGGCAACGUUCUCAACUAUGACACGCAAAACGCGUGCUCCGUUGAAUGGAGUUUAUCAUG	≤ -4.2
GGAUCUUCUCGAUCUAACAAAAAAGACAAAUCUGCCACAAAGCUUGAACGGAUCUUCGGAUGCAGAGGCGGCAGCCUUCGGUGGUGCGGUAGCGCCUACGUUCGCAUCUAUAACACGCAGAACGCGUGCUCCGUUGAAUGGAGUUUAUCAUG	≤ -4.2
